# Laboratory results as given in PubChem BioAssay AID686978 (National Center for Advancing Translational Sciences (NCATS), 2013).
# Out of some 420,000 compounds screened, about 64,000 (15%) were called active. Inconclusive means that the source gave no clear call. Such entries were picked first, then a sample of the others. The call rests on the fitted dose curve; in most records, active means well fitted inhibition curve with a large enough effect; inconclusive means small, poorly fitted or top-dose-only effect; inactive means flat fitted curve, though single readings scatter. Potencies of inconclusive entries are left out as doubtful fits.
# Test: qHTS for Inhibitors of human tyrosyl-DNA phosphodiesterase 1 (TDP1): qHTS in cells in absence of CPT; further: nearly all actives have a fitted effect of over 55% in size
# Conditions: DT40 Tdp1-/- hTDP1 cells, no CPT, ATP luminescence, 48 h; activity change, negative = growth inhibition: at 46.2 µM (top of the series) unless noted
# Method in brief: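 Chicken DT40 Tdp1-/- cells stably complemented with human TDP1 were seeded at 400 cells/well with DMSO in place of 20 nM camptothecin. After compound pinning, cells grew at least 48 hr at 37 °C; viability read by CellTiter-Glo luminescence.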
# On the % scale 0 is the no-effect control and ±100 the full control effect; potency means the concentration at half of the fitted maximal effect; tags describe the fitted curve by direction and shape.
SMILES,Potency,"activity change, negative = growth inhibition"
NC(=O)c1ccsc1NC(=O)COC(=O)c1ccccn1,"inconclusive [inhibitor, single point]",
Nc1sc(-c2ccccc2)cc1C(=O)N1CCNCC1,,inactive: -25%
O=C(Cn1c(=O)c2cccn2c2ccccc21)Nc1ccc(F)cc1F,,inactive: 4.21%
Cc1ccccc1-c1n[nH]nc1C1=CC(=O)C[C@H](c2ccc(F)cc2)C1,"inconclusive [inhibitor, single point]",
CCc1cc(-c2ccc3c(c2)COc2c4ccccc4nn2-3)on1,"inconclusive [inhibitor, single point]",
Cc1ccccc1C(=O)Nc1ccccc1-c1nc(-c2ccccc2)no1,,inactive: -5.65%
O=C(c1cnccn1)N1CCC2(CC1)CN(c1cccc(-c3ccccc3)c1)C2,"inconclusive [inhibitor, partial curve, poor fit]",
COc1ccc(-c2coc3cc(O)ccc3c2=O)c(OC)c1,,inactive: -11.4%
CCS(=O)(=O)Nc1ccc(C(=O)NCCSc2ccccc2)cc1,"inconclusive [inhibitor, partial curve, poor fit]",
Cc1nc2c(oc3ccccc32)c(=O)o1,,inactive: -6.4%
CCOC(=O)c1cnc2ccc(C)cc2c1Sc1ccccc1C(=O)OC,"inconclusive [inhibitor, single point]",
COc1ccc(/C=C/C(=O)O)cc1,"inconclusive [inhibitor, single point]",
CC1CCN(C(=S)NC(=O)c2cccs2)CC1,"inconclusive [inhibitor, single point]",
CC(=O)Oc1ccc(C(=O)Nc2ccccc2NC(=O)c2ccc(OC(C)=O)cc2)cc1,,inactive: -12.3%
COc1ccc(NC(=O)CN2CCN(CC(=O)Nc3ccccc3Cl)CC2)cc1Cl,active: 11.6 µM,
CCCCn1c(CNC(=O)C23CC4CC(CC(C4)C2)C3)nnc1SCC(=O)Nc1ccc(F)cc1,"inconclusive [inhibitor, single point]",
O=C(CN1C(=O)c2cccnc2Oc2ccc(Cl)cc21)NCCCc1ccccc1,"inconclusive [inhibitor, single point]",
CCNC(=O)CSc1nnc(-c2ccccc2Br)n1-c1cccc(C(F)(F)F)c1,"inconclusive [inhibitor, single point]",
COC(=O)c1cc(NC(=O)C2CC(=O)NC(=NCc3ccc(OC)cc3)S2)cc(C(=O)OC)c1 (centres undefined),,inactive: -0.831%
CN(Cc1ccccc1)C(=O)c1cccc(NC(=O)Cc2cccc(NC(=O)C3CCN(C(=O)C4CC4)CC3)c2)c1,"inconclusive [inhibitor, single point]",
Cc1ccc(C2(O)CCN(CCCC(=O)c3ccc(F)cc3)CC2)cc1,"inconclusive [inhibitor, single point]",
Cc1cc(C(=O)NCc2ccccc2)c2c(C)nn(-c3cccc(Cl)c3C)c2n1,"inconclusive [inhibitor, single point]",
Oc1ccc(C[C@H]2CNCCN2CC2CCCCC2)cc1,active: 16.4 µM,
COCCNC(=S)N1CCN(c2nc(-c3ccc(Cl)cc3)cs2)CC1,"inconclusive [inhibitor, single point]",
Cc1cc(NC(=O)C(C)SCC(=O)OCC(=O)Nc2c(C)cccc2C(C)C)no1 (centres undefined),,inactive: 0.807%

SMILES,Potency,"activity change, negative = growth inhibition"
S=C(NCc1ccc(Cl)cc1Cl)Nc1ccccc1,"inconclusive [inhibitor, single point]",
CCOC(=O)c1ccc(-n2ncc(C(=O)OCC)c2N)cc1,"inconclusive [inhibitor, single point]",
Cc1ccc(C(=O)N/C(=C\c2ccc(-c3ccc(Cl)cc3)o2)C(=O)NCCCN(C)C)cc1,active: 11.6 µM,
O=C(CSc1nnc(-c2c[nH]c3ccccc23)n1-c1ccc(F)cc1)NCc1ccco1,"inconclusive [inhibitor, partial curve]",
O=C(Cc1ccc(-c2ccccc2)cc1)NC(c1ccccc1)c1ccccc1,"inconclusive [inhibitor, single point]",
CCCn1nnc(NC(=S)NC(=O)/C=C/c2ccc(Cl)cc2)n1,,inactive: -5.86%
COc1ccc(S(=O)(=O)Nc2ccc(N3CCOCC3)cc2)cc1[N+](=O)[O-],,inactive: -0.773%
O=C(SCc1c(O)c2ccccc2oc1=O)c1ccccc1,"inconclusive [inhibitor, partial curve]",
COc1ccccc1N1CCN(c2ccc3ccccc3n2)CC1,"inconclusive [inhibitor, single point]",
CC(C)Cn1cc(-c2cccc3nccn23)cn1,,inactive: -1.08%
CCOC(=O)C1CCN(C(=O)COC(=O)c2ccc3[nH]c4c(c3c2)CCCC4)CC1,active: 11.6 µM,
COC(=O)c1[nH]c2ccccc2c1NC(=O)CN1CCN(Cc2ccc3c(c2)OCO3)CC1,"inconclusive [inhibitor, partial curve]",
CCc1nnc(NS(=O)(=O)c2ccc(NC(=O)/C=C/c3ccc(OC)cc3OC)cc2)s1,,inactive: 0.862%
S=c1nc(-c2cccc(Cl)c2)[nH][nH]1,,inactive: -21.4%
Cc1ccc2[nH]c(=O)c(CN(Cc3cccs3)S(=O)(=O)c3ccc4c(c3)OCCO4)cc2c1,"inconclusive [inhibitor, partial curve]",
COc1ccccc1NC(=O)C(C)N(C)CC(=O)Nc1cccc2ccccc12 (centres undefined),"inconclusive [inhibitor, single point]",
N#CN=c1snc(-c2ccccc2)n1-c1ccc(Cl)cc1,"inconclusive [inhibitor, single point]",
Cc1ccc(-n2cnc3cc(C(=O)NCCC4=CCCCC4)ccc32)cc1Cl,"inconclusive [inhibitor, single point]",
CCc1ccccc1N(CC)C(=O)Cn1nc(Cc2ccncc2)c2ccccc2c1=O,"inconclusive [inhibitor, single point]",
CC(=O)c1cccc(OCc2cc(C(=O)NC(C)Cc3cccnc3)no2)c1 (centres undefined),"inconclusive [inhibitor, partial curve]",
Cc1cc(C(=O)CN2C(=O)NC(c3ccccc3)(c3ccccc3)C2=O)c(C)n1Cc1ccco1,active: 23.1 µM,
O=C(Nc1nccs1)C(c1ccccc1)N1CCCC1 (centres undefined),,inactive: -0.0633%
CC1CCCCN1S(=O)(=O)c1cnc(Cl)c(Br)c1 (centres undefined),"inconclusive [inhibitor, single point]",
COc1cc(SC)ccc1C(=O)OCc1nc2ccsc2c(=O)[nH]1,active: 9.2 µM,
CC(C)(C)c1csc(NC(=O)Cc2ccc(S(=O)(=O)N3CCOCC3)s2)n1,active: 14.6 µM,

SMILES,Potency,"activity change, negative = growth inhibition"
O=C(CC1SC(=O)N(Cc2ccccc2)C1=O)Nc1nccs1 (centres undefined),,inactive: 4.19%
Cn1c(CN2CCOCC2)nc2cc(NC(=O)c3ccccc3Cl)ccc21,,inactive: -15.2%
O=C(c1cc([N+](=O)[O-])cc([N+](=O)[O-])c1)N1CCCc2ccccc21,"inconclusive [inhibitor, single point]",
Cc1ccc(OCC(=O)Nc2cccc3ccc(C)nc23)c(C)c1,"inconclusive [inhibitor, full curve]",
Cc1cnc(C(=O)OC(C)C(=O)c2c(C)[nH]c3ccccc23)cn1 (centres undefined),,inactive: -8.67%
O=C(N/N=C/c1ccc([N+](=O)[O-])s1)c1ccncc1,active: 6.51 µM,
CCOC(=O)N1CCC(=NNC(=O)Cn2ccc(C(F)(F)F)n2)CC1,,inactive: 0.0778%
CC(C)n1nc(C(=O)OCC(=O)NCCc2ccc(S(N)(=O)=O)cc2)c2ccccc2c1=O,,inactive: 21.8%
CC(C)c1ccc(/C=C/C(=O)Nc2nncs2)cc1,active: 13 µM,
CCOc1ccccc1CNS(=O)(=O)c1cc(-c2cc(C)no2)ccc1OC,,inactive: -19.6%
CC(C)c1[nH]nc2c1C(c1cccs1)C(C#N)=C(N)O2 (centres undefined),"inconclusive [inhibitor, single point]",
Cc1ccc(NC(=O)NC2C(NC(=O)Nc3ccc(C)cc3)N(C)C(=O)N2C)cc1 (centres undefined),,inactive: -11.2%
COc1cc(Nc2cccc(-c3ccccc3)n2)cc(OC)c1OC,"inconclusive [inhibitor, single point]",
O=C(CSc1ccc2nnc(-c3ccc(Cl)cc3)n2n1)N1CCCC1,"inconclusive [inhibitor, partial curve, poor fit]",
NC(=O)CC(NC(=O)Cc1cccc2ccccc12)c1ccc(NCc2ccc(F)cc2)c([N+](=O)[O-])c1 (centres undefined),"inconclusive [inhibitor, single point]",
CCN(CC)C(=O)CSc1ncnc2c(-c3cccs3)nsc12,"inconclusive [inhibitor, partial curve]",
O=C(NC1CCCC1)c1cc(COc2ccc3ncccc3c2)on1,active: 2.06 µM,
COc1cccc(C(=O)N2CCC(n3nccc3NC(=O)C3CCOC3)CC2)c1 (centres undefined),,inactive: 3.75%
CCOc1ccccc1NC(=O)Cn1nc(N2CCN(c3ccccc3)CC2)ccc1=O,active: 18.4 µM,
Cc1ccccc1NC(=O)Cc1ccccc1,,inactive: -6.52%
C[C@@H]1CC[C@]2(C(=O)O)CC[C@]3(C)C(=CCC4[C@]56CC[C@@](O)(OC5)C(C)(C)C6CC[C@]43C)C2[C@H]1C (some centres undefined),active: 18.4 µM,
Oc1cccc(Nc2ncnc3c2oc2ccccc23)c1,"inconclusive [inhibitor, partial curve]",
COc1ccc(N2CCN(Cc3nc4c(c(=O)n(C)c(=O)n4C)n3CC(C)=O)CC2)cc1,active: 23.1 µM,
COC(=O)[C@@H]1[C@@H](C#N)C2(c3ccccc3-c3ccccc32)N(c2ccc(Cl)cc2)N1C#N,active: 3.66 µM,
